Source: PMC12820563
This is one part of the list. The list includes weakly bound sequences.

Target: T1, MBP-FoxP3dN (UniProt Q99JB6)
T1 sequence: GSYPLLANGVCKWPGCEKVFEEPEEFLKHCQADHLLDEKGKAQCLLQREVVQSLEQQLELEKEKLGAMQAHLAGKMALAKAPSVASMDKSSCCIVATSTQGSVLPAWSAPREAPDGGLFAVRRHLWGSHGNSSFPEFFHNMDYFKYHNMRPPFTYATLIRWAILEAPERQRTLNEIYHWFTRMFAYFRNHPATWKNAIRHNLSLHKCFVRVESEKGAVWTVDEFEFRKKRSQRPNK
Assay: PD-seq (MBP pull-down with sequencing)
Conditions: 20 mM Tris-HCl pH 7.5, 100 mM NaCl, 1.5 mM MgCl2, 0.4 uM protein, 0.1 uM dsDNA library, 30 min, room temperature, amylose pull-down; high values mean tight binding; double strand, one strand shown

| Sequence | binding signal (RPM ratio (pull-down/input)) |
| --- | --- |
| GATGATTGTTCTCCCAGCTGATGAATTGGCGGCATCGAGTAAACAAATTTTCCTAATCTTTCTGTTCAAGCGCCATCTAC | 0.882 |
| GATGATTGTTCTCCCAGCTGATGAATTAGCTCGTTCGAGTAAACAAATTTTCCTAATCTTTCTGTTCAAGCGCCATCTAC | 0.372 |
| GATGATTGTTCTCCCAGCTGATGAATTTATATGCTCGAGTAAACAAATTTTCCTAATCTTTCTGTTCAAGCGCCATCTAC | 2.57 |
| GATGATTGTTCTCCCAGCTGATGAATTTAGTTCATCGAGTAAACAAATTTTCCTAATCTTTCTGTTCAAGCGCCATCTAC | 0.875 |
| GATGATTGTTCTCCCAGCTGATGAATTTAAATACTCGAGTAAACAAATTTTCCTAATCTTTCTGTTCAAGCGCCATCTAC | 0.641 |
| GATGATTGTTCTCCCAGCTGATGAATTCACAGATTCGAGTAAACAAATTTTCCTAATCTTTCTGTTCAAGCGCCATCTAC | 0.245 |
| GATGATTGTTCTCCCAGCTGATGAATTGGGCAAATCGAGTAAACAAATTTTCCTAATCTTTCTGTTCAAGCGCCATCTAC | 0.522 |
| GATGATTGTTCTCCCAGCTGATGAATTTCACTTATCGAGTAAACAAATTTTCCTAATCTTTCTGTTCAAGCGCCATCTAC | 0.683 |
| GATGATTGTTCTCCCAGCTGATGAATTGCTTGATTCGAGTAAACAAATTTTCCTAATCTTTCTGTTCAAGCGCCATCTAC | 0.704 |
| GATGATTGTTCTCCCAGCTGATGAATTAAGTTGGTCGAGTAAACAAATTTTCCTAATCTTTCTGTTCAAGCGCCATCTAC | 2.4 |
| GATGATTGTTCTCCCAGCTGATGAATTACTCCCTTCGAGTAAACAAATTTTCCTAATCTTTCTGTTCAAGCGCCATCTAC | 0.319 |
| GATGATTGTTCTCCCAGCTGATGAATTTAAAAGATCGAGTAAACAAATTTTCCTAATCTTTCTGTTCAAGCGCCATCTAC | 0.198 |
| GATGATTGTTCTCCCAGCTGATGAATTAGGCACATCGAGTAAACAAATTTTCCTAATCTTTCTGTTCAAGCGCCATCTAC | 0.892 |
| GATGATTGTTCTCCCAGCTGATGAATTTCTTTTGTCGAGTAAACAAATTTTCCTAATCTTTCTGTTCAAGCGCCATCTAC | 1.65 |
| GATGATTGTTCTCCCAGCTGATGAATTAAAATTCTCGAGTAAACAAATTTTCCTAATCTTTCTGTTCAAGCGCCATCTAC | 0.341 |
| GATGATTGTTCTCCCAGCTGATGAATTGGGACTTTCGAGTAAACAAATTTTCCTAATCTTTCTGTTCAAGCGCCATCTAC | 1.05 |
| GATGATTGTTCTCCCAGCTGATGAATTTGTGAGTTCGAGTAAACAAATTTTCCTAATCTTTCTGTTCAAGCGCCATCTAC | 5.06 |
| GATGATTGTTCTCCCAGCTGATGAATTGCTGGTCTCGAGTAAACAAATTTTCCTAATCTTTCTGTTCAAGCGCCATCTAC | 0.743 |
| GATGATTGTTCTCCCAGCTGATGAATTGGATAGTTCGAGTAAACAAATTTTCCTAATCTTTCTGTTCAAGCGCCATCTAC | 0.766 |
| GATGATTGTTCTCCCAGCTGATGAATTAACTATGTCGAGTAAACAAATTTTCCTAATCTTTCTGTTCAAGCGCCATCTAC | 0.386 |

| Sequence | binding signal (RPM ratio (pull-down/input)) |
| --- | --- |
| GATGATTGTTCTCCCAGCTGATGAATTTAATACTTCGAGTAAACAAATTTTCCTAATCTTTCTGTTCAAGCGCCATCTAC | 0.482 |
| GATGATTGTTCTCCCAGCTGATGAATTAAGATTCTCGAGTAAACAAATTTTCCTAATCTTTCTGTTCAAGCGCCATCTAC | 0.549 |
| GATGATTGTTCTCCCAGCTGATGAATTAATGCTATCGAGTAAACAAATTTTCCTAATCTTTCTGTTCAAGCGCCATCTAC | 1.89 |
| GATGATTGTTCTCCCAGCTGATGAATTTCGGATTTCGAGTAAACAAATTTTCCTAATCTTTCTGTTCAAGCGCCATCTAC | 0.322 |
| GATGATTGTTCTCCCAGCTGATGAATTTACACGTTCGAGTAAACAAATTTTCCTAATCTTTCTGTTCAAGCGCCATCTAC | 0.569 |
| GATGATTGTTCTCCCAGCTGATGAATTCGCAGTCTCGAGTAAACAAATTTTCCTAATCTTTCTGTTCAAGCGCCATCTAC | 0.546 |
| GATGATTGTTCTCCCAGCTGATGAATTGAATCGCTCGAGTAAACAAATTTTCCTAATCTTTCTGTTCAAGCGCCATCTAC | 0.332 |
| GATGATTGTTCTCCCAGCTGATGAATTATAGAGGTCGAGTAAACAAATTTTCCTAATCTTTCTGTTCAAGCGCCATCTAC | 0.292 |
| GATGATTGTTCTCCCAGCTGATGAATTCAAGTATTCGAGTAAACAAATTTTCCTAATCTTTCTGTTCAAGCGCCATCTAC | 0.851 |
| GATGATTGTTCTCCCAGCTGATGAATTATCGCAATCGAGTAAACAAATTTTCCTAATCTTTCTGTTCAAGCGCCATCTAC | 2.89 |
| GATGATTGTTCTCCCAGCTGATGAATTGACGCTATCGAGTAAACAAATTTTCCTAATCTTTCTGTTCAAGCGCCATCTAC | 0.96 |
| GATGATTGTTCTCCCAGCTGATGAATTTTAGCCTTCGAGTAAACAAATTTTCCTAATCTTTCTGTTCAAGCGCCATCTAC | 2.35 |
| GATGATTGTTCTCCCAGCTGATGAATTGAGTCGATCGAGTAAACAAATTTTCCTAATCTTTCTGTTCAAGCGCCATCTAC | 0.374 |
| GATGATTGTTCTCCCAGCTGATGAATTTAGTAACTCGAGTAAACAAATTTTCCTAATCTTTCTGTTCAAGCGCCATCTAC | 1.77 |
| GATGATTGTTCTCCCAGCTGATGAATTTGTACGCTCGAGTAAACAAATTTTCCTAATCTTTCTGTTCAAGCGCCATCTAC | 2.02 |
| GATGATTGTTCTCCCAGCTGATGAATTCCGGCTCTCGAGTAAACAAATTTTCCTAATCTTTCTGTTCAAGCGCCATCTAC | 0.325 |
| GATGATTGTTCTCCCAGCTGATGAATTGGTGCTCTCGAGTAAACAAATTTTCCTAATCTTTCTGTTCAAGCGCCATCTAC | 0.609 |
| GATGATTGTTCTCCCAGCTGATGAATTATTATGCTCGAGTAAACAAATTTTCCTAATCTTTCTGTTCAAGCGCCATCTAC | 0.959 |
| GATGATTGTTCTCCCAGCTGATGAATTGGCAACTTCGAGTAAACAAATTTTCCTAATCTTTCTGTTCAAGCGCCATCTAC | 1.69 |
| GATGATTGTTCTCCCAGCTGATGAATTTCCGCTCTCGAGTAAACAAATTTTCCTAATCTTTCTGTTCAAGCGCCATCTAC | 0.388 |
